# Several values for one entry are separate records, joined by “and”; a condition that tells them apart may be missing. Identical values can stand only once. Inconclusive means that the source gave no clear call. Such entries were picked first, then a sample of the others. A potency beside an inconclusive call is a rough fit, not a confirmed value. Activity calls are given as the source filed them. Calls come from the whole dose curve; as a rule, active = well fitted curve in the direction sought with a large enough effect in the repeat runs; inconclusive = weak or mixed curves; inactive = no such curve, though single readings can be large; an effect the other way counts as inactive or inconclusive.
# How the values were obtained:
# [1] = Caspase-3/7 induction in CHO-K1 cells by small molecules, qHTS cell viability counter screen (AID 1346979); note: nearly all actives have a fitted effect of over 35% in size
# Summary of the method: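 Following a 5hr settling period, CHO-K1 cells at 1,500 per well received DMSO-dissolved compounds. Cell viability was quantified 16hr later by CellTiter-Fluor fluorescence, measured after 1hr with reagent at 37C.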
# [2] = biological target: Nuclear receptor subfamily 1 group I member 2 (Homo sapiens) (UniProt O75469); assay: Human pregnane X receptor (PXR) activation by small molecules, qHTS assay (AID 1346985); note: nearly all actives have a fitted effect of over 40% in size
# Summary of the method: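 DPX-2 cells (HepG2 co-transfected with a PXR response element and a CYP3A4-promoter luciferase construct) were seeded at 2,000 per well, rested 5 hr at 37C, then exposed to DMSO-dissolved compounds for 24 hr. Activation was read as luciferase luminescence.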
# [3] = biological target: Nuclear receptor subfamily 1 group I member 2 (Homo sapiens) (UniProt O75469); assay: Human pregnane X receptor (PXR) small molecule agonists, qHTS assay (AID 1346982); note: nearly all actives have a fitted effect of over 35% in size
# Summary of the method: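 Agonist mode: luminescence from ONE-Glo after 24 h compound exposure at 37C in HepG2 cells carrying hPXR-responsive CYP3A4 luciferase, plated in charcoal-stripped serum medium 5 h beforehand.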
# [4] = biological target: Cytochrome P450 2C9 (Homo sapiens) (UniProt P11712); assay: Cytochrome P450 Family 2 Subfamily C Member 9 (CYP2C9) small molecule antagonists: luciferase reporter qHTS assay (AID 1671198); note: nearly all actives have a fitted effect of over 50% in size
# Summary of the method: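 Enzyme-substrate mix preincubated with compound 10 min at room temperature; reaction started with NADPH regeneration solution, 1 h 37C. Luminescent luciferin product read after 20 min detection reagent.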
# [5] = biological target: Cytochrome P450 1A2 (Homo sapiens) (UniProt P05177); assay: Cytochrome P450 Family 1 Subfamily A Member 2 (CYP1A2) small molecule antagonists: luciferase reporter qHTS assay (AID 1671199); note: nearly all actives have a fitted effect of over 50% in size
# Summary of the method: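 Luminescence from luciferin formed by CYP1A2 from a proluciferin substrate, read 20 min after detection reagent. Compound was pre-incubated 10 min with enzyme-substrate, and reaction started with NADPH regeneration solution for 1 h at room temperature; furafylline control.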
# [6] = biological target: Voltage-gated inwardly rectifying potassium channel KCNH2 (Homo sapiens) (UniProt Q12809); assay: Human Ether-a-go-go-Related Gene (hERG) channel small molecule antagonists: fluorescence cell-based qHTS assay (AID 1671200); note: nearly all actives have a fitted effect of over 50% in size
# Summary of the method: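 In this thallium-flux screen, overnight-cultured U2OS cells bearing the channel are dye-loaded in darkness for an hour, rested 10 min at room temperature, and then monitored kinetically at 480/540 nm for two minutes post-stimulus.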
# [7] = biological target: Cytochrome P450 2D6 (Homo sapiens) (UniProt P10635); assay: Cytochrome P450 Family 2 Subfamily D Member 6 (CYP2D6) small molecule antagonists: luciferase reporter qHTS assay (AID 1671196); note: nearly all actives have a fitted effect of over 50% in size
# Summary of the method: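 CYP2D6 activity was followed as luminescence from its luciferin product after a 1 h NADPH-driven reaction at room temperature. Enzyme-substrate mix and compound were pre-incubated for 10 min, and the signal was read 20 min after adding detection reagent.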
# [8] = biological target: Cytochrome P450 2C19 (Homo sapiens) (UniProt P33261); assay: Cytochrome P450 Family 2 Subfamily C Member 19 (CYP2C19) small molecule antagonists: luciferase reporter qHTS assay (AID 1671197); note: nearly all actives have a fitted effect of over 65% in size
# Summary of the method: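 Enzyme-substrate mix with proluciferin substrate (P450-Glo CYP2C19 system) preincubated with compounds 10 min at room temperature; NADPH regeneration solution added, 37C for 1 h; detection reagent stops reaction, luminescence read after 20 min. Ketoconazole positive control.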
# [9] = biological target: Cytochrome P450 3A4 (Homo sapiens) (UniProt P08684); assay: Cytochrome P450 Family 3 Subfamily A Member 4 (CYP3A4) small molecule antagonists: luciferase reporter qHTS assay (AID 1671201); note: nearly all actives have a fitted effect of over 50% in size
# Summary of the method: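 CYP3A4 activity was followed with a P450-Glo proluciferin substrate. Test compounds in DMSO were preincubated 10 min; NADPH regeneration then ran 1 h, and light output was read 20 min after detection reagent.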
# Potency is the fitted concentration of half-maximal effect; tags give direction and shape of the fitted curve.
# Sequence of UniProt P05177 (P05177 whole entry, looked up): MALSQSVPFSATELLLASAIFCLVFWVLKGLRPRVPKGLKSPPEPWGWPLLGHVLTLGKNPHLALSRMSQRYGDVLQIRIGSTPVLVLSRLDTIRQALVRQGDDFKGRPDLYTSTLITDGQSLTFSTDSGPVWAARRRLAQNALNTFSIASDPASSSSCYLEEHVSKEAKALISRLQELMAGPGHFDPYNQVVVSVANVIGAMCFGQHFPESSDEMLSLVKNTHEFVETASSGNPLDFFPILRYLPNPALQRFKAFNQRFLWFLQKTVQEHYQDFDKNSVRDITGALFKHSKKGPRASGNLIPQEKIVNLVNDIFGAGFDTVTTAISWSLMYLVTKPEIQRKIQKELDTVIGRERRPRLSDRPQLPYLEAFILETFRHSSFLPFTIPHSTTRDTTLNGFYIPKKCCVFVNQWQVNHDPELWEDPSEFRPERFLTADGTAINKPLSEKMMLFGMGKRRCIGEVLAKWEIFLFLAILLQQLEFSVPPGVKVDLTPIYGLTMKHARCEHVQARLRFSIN
# Sequence of UniProt P33261 (P33261 whole entry, looked up): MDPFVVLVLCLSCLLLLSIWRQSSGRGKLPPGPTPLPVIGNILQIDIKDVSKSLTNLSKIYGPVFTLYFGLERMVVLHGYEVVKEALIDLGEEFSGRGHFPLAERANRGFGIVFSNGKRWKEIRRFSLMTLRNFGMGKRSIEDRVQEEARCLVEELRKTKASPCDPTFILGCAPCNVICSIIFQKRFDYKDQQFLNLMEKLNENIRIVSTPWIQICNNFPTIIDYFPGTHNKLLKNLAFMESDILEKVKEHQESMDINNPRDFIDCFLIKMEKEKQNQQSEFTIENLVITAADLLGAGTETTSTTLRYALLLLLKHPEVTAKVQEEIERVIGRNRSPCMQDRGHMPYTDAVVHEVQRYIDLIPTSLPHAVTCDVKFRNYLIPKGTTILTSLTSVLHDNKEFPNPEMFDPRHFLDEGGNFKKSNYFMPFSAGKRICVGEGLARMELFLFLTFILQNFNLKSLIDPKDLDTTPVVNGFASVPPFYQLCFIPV
# Sequence of UniProt P10635 (P10635 whole entry, looked up): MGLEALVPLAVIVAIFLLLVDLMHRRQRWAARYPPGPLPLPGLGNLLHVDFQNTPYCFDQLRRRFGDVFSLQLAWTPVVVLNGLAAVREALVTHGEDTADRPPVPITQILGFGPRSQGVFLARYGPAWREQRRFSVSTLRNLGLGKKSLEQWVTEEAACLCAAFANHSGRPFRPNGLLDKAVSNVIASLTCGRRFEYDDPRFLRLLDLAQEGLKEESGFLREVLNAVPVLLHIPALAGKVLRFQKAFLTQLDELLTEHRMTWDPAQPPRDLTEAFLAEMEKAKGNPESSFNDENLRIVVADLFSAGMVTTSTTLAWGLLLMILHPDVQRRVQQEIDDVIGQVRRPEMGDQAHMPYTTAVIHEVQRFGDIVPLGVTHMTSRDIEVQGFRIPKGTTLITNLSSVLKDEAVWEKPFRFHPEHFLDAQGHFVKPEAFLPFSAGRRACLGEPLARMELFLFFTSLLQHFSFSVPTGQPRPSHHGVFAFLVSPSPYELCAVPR
# Sequence of UniProt Q12809 (Q12809 whole entry, looked up): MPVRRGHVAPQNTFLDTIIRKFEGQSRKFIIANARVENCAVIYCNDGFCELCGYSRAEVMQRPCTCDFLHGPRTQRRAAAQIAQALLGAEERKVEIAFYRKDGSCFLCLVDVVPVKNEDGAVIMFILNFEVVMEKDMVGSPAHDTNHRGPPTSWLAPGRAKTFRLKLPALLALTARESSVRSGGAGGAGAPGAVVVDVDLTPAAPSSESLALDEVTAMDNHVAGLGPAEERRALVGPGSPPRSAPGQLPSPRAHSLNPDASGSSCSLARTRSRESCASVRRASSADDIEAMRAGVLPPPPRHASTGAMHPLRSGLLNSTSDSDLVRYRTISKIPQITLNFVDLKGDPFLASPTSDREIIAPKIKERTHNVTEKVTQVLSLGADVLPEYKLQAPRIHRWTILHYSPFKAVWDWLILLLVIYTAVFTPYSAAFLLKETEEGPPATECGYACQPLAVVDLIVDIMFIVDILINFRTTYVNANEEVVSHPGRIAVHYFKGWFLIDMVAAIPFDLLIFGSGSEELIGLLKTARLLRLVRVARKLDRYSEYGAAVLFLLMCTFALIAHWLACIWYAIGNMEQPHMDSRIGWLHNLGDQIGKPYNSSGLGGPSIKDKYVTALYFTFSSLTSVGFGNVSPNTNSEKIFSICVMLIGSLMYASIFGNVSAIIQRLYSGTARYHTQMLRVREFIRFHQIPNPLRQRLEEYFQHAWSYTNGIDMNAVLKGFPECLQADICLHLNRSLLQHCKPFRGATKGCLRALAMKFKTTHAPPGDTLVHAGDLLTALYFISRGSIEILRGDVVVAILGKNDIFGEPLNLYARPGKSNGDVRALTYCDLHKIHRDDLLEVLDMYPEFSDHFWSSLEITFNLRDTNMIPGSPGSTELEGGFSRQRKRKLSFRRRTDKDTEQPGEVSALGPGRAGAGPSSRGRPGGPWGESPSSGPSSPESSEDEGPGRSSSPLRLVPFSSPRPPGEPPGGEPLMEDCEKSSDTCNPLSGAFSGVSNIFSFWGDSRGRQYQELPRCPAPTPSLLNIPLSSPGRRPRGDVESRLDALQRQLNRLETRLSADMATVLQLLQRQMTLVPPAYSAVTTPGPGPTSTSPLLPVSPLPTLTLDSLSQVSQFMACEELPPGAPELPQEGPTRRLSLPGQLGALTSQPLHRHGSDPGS
# Sequence of UniProt P11712 (P11712 whole entry, looked up): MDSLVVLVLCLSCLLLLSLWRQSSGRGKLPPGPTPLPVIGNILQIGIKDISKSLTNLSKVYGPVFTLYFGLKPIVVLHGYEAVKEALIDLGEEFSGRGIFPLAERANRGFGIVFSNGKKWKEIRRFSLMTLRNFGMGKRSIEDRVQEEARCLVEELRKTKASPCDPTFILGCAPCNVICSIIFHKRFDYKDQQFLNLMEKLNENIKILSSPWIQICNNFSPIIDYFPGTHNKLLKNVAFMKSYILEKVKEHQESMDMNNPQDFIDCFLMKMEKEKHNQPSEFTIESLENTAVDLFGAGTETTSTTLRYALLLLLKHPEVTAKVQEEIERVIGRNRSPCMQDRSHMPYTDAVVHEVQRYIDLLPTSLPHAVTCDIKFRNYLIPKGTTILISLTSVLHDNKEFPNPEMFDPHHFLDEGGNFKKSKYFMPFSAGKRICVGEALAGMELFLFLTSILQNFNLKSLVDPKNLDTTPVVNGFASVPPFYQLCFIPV
# Sequence of UniProt P08684 (P08684 whole entry, looked up): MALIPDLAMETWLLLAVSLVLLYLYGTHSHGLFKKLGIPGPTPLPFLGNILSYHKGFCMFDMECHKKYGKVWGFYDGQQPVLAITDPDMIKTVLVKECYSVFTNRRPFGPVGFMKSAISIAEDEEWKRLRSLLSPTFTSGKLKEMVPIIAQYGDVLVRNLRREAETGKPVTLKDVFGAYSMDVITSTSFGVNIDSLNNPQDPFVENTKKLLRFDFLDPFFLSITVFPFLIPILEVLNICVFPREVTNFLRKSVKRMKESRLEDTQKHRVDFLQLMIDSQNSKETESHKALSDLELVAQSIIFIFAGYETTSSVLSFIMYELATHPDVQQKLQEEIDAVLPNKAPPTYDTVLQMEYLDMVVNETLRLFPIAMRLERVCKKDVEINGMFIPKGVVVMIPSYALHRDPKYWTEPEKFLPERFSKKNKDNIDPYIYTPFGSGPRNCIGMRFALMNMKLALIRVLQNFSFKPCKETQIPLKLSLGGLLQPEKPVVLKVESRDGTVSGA
smiles,measurement,setting,value
CCn1cc(C(=O)O)c(=O)c2cc(F)c(N3CCNCC3)cc21,Potency,[1],"inconclusive: 26.6 µM [rising, partial curve, poor fit]"
same,Potency,[2],"inconclusive: 4.47 µM [activator, single point]"
CN(c1nccc(=O)[nH]1)C1CCN(c2nc3ccccc3n2Cc2ccc(F)cc2)CC1,Potency,[1],"inconclusive: 29.8 µM [cytotoxic, single point]"
same,Potency,[3],"inconclusive: 13.3 µM [activator, partial curve, poor fit]"
same,Potency,[4],"inconclusive: 17.4 µM [inhibitor, partial curve]"
same,Potency,[5],"inconclusive: 20.4 µM [inhibitor, single point]"
same,Potency,[6],active: 2.39 µM
C=C/C(C)=C/C/C=C(\C)CCC=C(C)C,Potency,[1],inconclusive: 77 µM [cytotoxic]
same,Potency,[7],"inconclusive: 35.6 µM [inhibitor, partial curve]"
same,Potency,[8],active: 31.7 µM
same,Potency,[4],active: 31.7 µM
same,Potency,[5],inactive
CCCCNc1c(C(=O)OCC)c(C)nc2c1cnn2CC,Potency,[1],"inconclusive: 33.5 µM [cytotoxic, single point]"
same,Potency,[8],"inconclusive: 43.6 µM [inhibitor, single point]"
same,Potency,[5],active: 2.75 µM
COC(=O)C(C)Oc1ccc(Oc2ncc(C(F)(F)F)cc2Cl)cc1 (stereo unspecified),Potency,[1],"inconclusive: 98.2 µM [rising, partial curve, poor fit]"
same,Potency,[7],"inconclusive: 36 µM [inhibitor, partial curve] and inconclusive: 39.9 µM [inhibitor, partial curve]"
same,Potency,[8],active: 40.4 µM and active: 39.9 µM
same,Potency,[5],"inconclusive: 36 µM [inhibitor, partial curve] and inconclusive: 39.9 µM [inhibitor, partial curve]"
same,Potency,[6],"inconclusive: 24.9 µM [inhibitor, full curve] and inconclusive: 54.9 µM [inhibitor, partial curve, poor fit]"
same,Potency,[9],"inconclusive: 63.3 µM [inhibitor, partial curve]"
